Data on 12 compounds can be found in the supplement of paper PMC4604168 (melanoma cell lines).

The other results are listed elsewhere or left out. Single values are uncertain, as repeats are few or missing.
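Note: cells treated in 1,536-well plates, then fixed and DAPI-stained, with nuclei counted from automated high-throughput microscope images.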

In the test the test system is WM115. The experiment in a line: cell count relative to DMSO control; melanoma cells; higher = more viable cells. The following applies: library dose: standard library concentration; 72 h.
Compound `COc1cc([C@@H]2c3cc4c(cc3[C@@H](O[C@@H]3O[C@@H]5CO[C@@H](C)O[C@H]5[C@H](O)[C@H]3O)[C@H]3COC(=O)[C@H]23)OCO4)cc(OC)c1O` [etoposide] + NC(=O)Nc1cc(-c2cccc(F)c2)sc1C(=O)N[C@H]1CCCNC1 [AZD7762] (first compound 0.1 µM, partner dose 0.1 µM) registered a cell count of 56.1%.

`Cn1cnc2c(F)c(Nc3ccc(Br)cc3Cl)c(C(=O)NOCCO)cc21` [selumetinib] + CN(C)S(=O)(=O)c1ccc2c(c1)/C(=C/c1cc3c([nH]1)CCCC3)C(=O)N2 [SU6656] (first compound 0.075 µM, partner dose 2 µM): the cell count was found to be 50.9%.

Consider `C[C@]1(O)C[C@@H](c2nc(-c3ccc4ccc(-c5ccccc5)nc4c3)c3c(N)nccn32)C1` + CO[C@@H]1[C@H](N(C)C(=O)c2ccccc2)C[C@H]2O[C@]1(C)n1c3ccccc3c3c4c(c5c6ccccc6n2c5c31)C(=O)NC4 [Midostaurin] (first compound 2 µM, partner dose 0.4 µM), for which the cell count came to 49.8%.

The compound `Cn1cnc2c(F)c(Nc3ccc(Br)cc3Cl)c(C(=O)NOCCO)cc21` [selumetinib] + C[C@@H]1CCN(C(=O)CC#N)C[C@@H]1N(C)c1ncnc2[nH]ccc12 [CP690550] (first compound 0.075 µM, partner dose 5 µM) showed a cell count of 77%.

`Cn1cnc2c(F)c(Nc3ccc(Br)cc3Cl)c(C(=O)NOCCO)cc21` [selumetinib] + OCCn1cc(-c2cnc3nnn(Cc4ccc5ncccc5c4)c3n2)cn1 [PF04217903] (first compound 0.075 µM, partner dose 5 µM) had a cell count of 65.7%.

In the case of `CCN(CC)CCNC(=O)c1c(C)[nH]c(/C=C2\C(=O)Nc3ccc(F)cc32)c1C` [sunitinib] + CC1(C)NC(=O)N(c2ccc([N+](=O)[O-])c(C(F)(F)F)c2)C1=O [nilutamide] (first compound 2 µM, partner dose 5 µM), the cell count amounted to 55.6%.

Compound `Cn1cnc2c(F)c(Nc3ccc(Br)cc3Cl)c(C(=O)NOCCO)cc21` [selumetinib] + CO[C@@H]1[C@H](N(C)C(=O)c2ccccc2)C[C@H]2O[C@]1(C)n1c3ccccc3c3c4c(c5c6ccccc6n2c5c31)C(=O)NC4 [Midostaurin] (first compound 0.075 µM, partner dose 0.4 µM) returned a cell count of 44.2%.

Compound `COc1cc([C@@H]2c3cc4c(cc3[C@@H](O[C@@H]3O[C@@H]5CO[C@@H](C)O[C@H]5[C@H](O)[C@H]3O)[C@H]3COC(=O)[C@H]23)OCO4)cc(OC)c1O` [etoposide] + Cc1cc(N2CCOCC2)cc2[nH]c(-c3c(NC[C@@H](O)c4cccc(Cl)c4)cc[nH]c3=O)nc12 [BMS536924] (first compound 0.1 µM, partner dose 1 µM) returned a cell count of 71.1%.

`Cn1cnc2c(F)c(Nc3ccc(Br)cc3Cl)c(C(=O)NOCCO)cc21` [selumetinib] + C=CCn1c(=O)c2cnc(Nc3ccc(N4CCN(C)CC4)cc3)nc2n1-c1cccc(C(C)(C)O)n1 [MK1775] (first compound 0.075 µM, partner dose 0.1 µM) showed a cell count of 60%.

In the case of `COc1cc([C@@H]2c3cc4c(cc3[C@@H](O[C@@H]3O[C@@H]5CO[C@@H](C)O[C@H]5[C@H](O)[C@H]3O)[C@H]3COC(=O)[C@H]23)OCO4)cc(OC)c1O` [etoposide] + CO[C@@H]1[C@H](N(C)C(=O)c2ccccc2)C[C@H]2O[C@]1(C)n1c3ccccc3c3c4c(c5c6ccccc6n2c5c31)C(=O)NC4 [Midostaurin] (first compound 0.1 µM, partner dose 0.4 µM), the cell count was 37.4%.

`CCN(CC)CCNC(=O)c1c(C)[nH]c(/C=C2\C(=O)Nc3ccc(F)cc32)c1C` [sunitinib] + C[C@@H]1CCN(C(=O)CC#N)C[C@@H]1N(C)c1ncnc2[nH]ccc12 [CP690550] (first compound 2 µM, partner dose 5 µM): the cell count amounted to 50.3%.

`COc1cc([C@@H]2c3cc4c(cc3[C@@H](O[C@@H]3O[C@@H]5CO[C@@H](C)O[C@H]5[C@H](O)[C@H]3O)[C@H]3COC(=O)[C@H]23)OCO4)cc(OC)c1O` [etoposide] + Nc1ccn([C@@H]2O[C@H](CO)[C@@H](O)C2(F)F)c(=O)n1 [gemcitabine] (first compound 0.1 µM, partner dose 0.002 µM) showed a cell count of 61.1%.
